Assay [1] addresses T1, full-length human FGFR1c on HEK293/hFGFR1c/SRE-luc cells (human, UniProt P11362 22-822).
T1 construct: amino acids 1-733 of NP_075593
Briefly: FACS on stable HEK293 cells, 67 nM. As for the experimental part: (§1) For the FACS analysis, HEK293 parental, HEK293/hFGFR1c, HEK293/hFGFR1c/hKLB, and HEK293/mFGFR1c/mKLB cells were dissociated and plated onto 96-well v-bottom plates at 0.5×10⁶ cells/well in 2% FBS/PBS. […] Control mAb2 was tested at a concentration of 965 nM. After primary protein incubation cells were washed and incubated with 3.75 μg/mL fluorescently conjugated secondary antibodies for 30 minutes at 4° C. Cells were filtered and analyzed on Accuri™ 6 Flow Cytometer. Unstained and secondary antibody alone controls were also tested for all cell lines. The results were analyzed using FlowJo version 9.52 software and geometric mean (Geom. Mean) of fluorescence for viable cells were determined. Geom. mean of fluorescence for each antibody was then normalized to Geom. mean of unstained cells to obtain relative binding of antibody (binding ratios) per each cell type.

The target in assay [2] is T2, human KLB and human FGFR1c co-expressed on HEK293/hKLB/hFGFR1c/SRE-luc cells (human, UniProt Q86Z14 1-1044; P11362 22-822).
T2 construct: two receptors co-expressed on one cell line; also called KLB/FGFR1c coreceptor; FGF21R
Description: FACS on stable HEK293 cells, 67 nM. The protocol:
as §1

The target of assay [3] is T3, cell-surface human FGFR1c (amino acids 1-731 of NP_075594) with cell-surface human KLB on … (human, UniProt P11362 22-822). Briefly: cell-based or functional assay.
Assay [4] has as its target T3, cell-surface human FGFR1c (amino acids …). Briefly: cell-based or functional assay. The source holds these as a separate data set.
Assay [5] addresses T4, extracellular domain of human KLB expressed with C-terminal HA and hexahistidine tags (human, UniProt Q86Z14 1-996).
T4 construct: also called hKLB-HA-6His; hKLB-HA-6his
T4 sequence: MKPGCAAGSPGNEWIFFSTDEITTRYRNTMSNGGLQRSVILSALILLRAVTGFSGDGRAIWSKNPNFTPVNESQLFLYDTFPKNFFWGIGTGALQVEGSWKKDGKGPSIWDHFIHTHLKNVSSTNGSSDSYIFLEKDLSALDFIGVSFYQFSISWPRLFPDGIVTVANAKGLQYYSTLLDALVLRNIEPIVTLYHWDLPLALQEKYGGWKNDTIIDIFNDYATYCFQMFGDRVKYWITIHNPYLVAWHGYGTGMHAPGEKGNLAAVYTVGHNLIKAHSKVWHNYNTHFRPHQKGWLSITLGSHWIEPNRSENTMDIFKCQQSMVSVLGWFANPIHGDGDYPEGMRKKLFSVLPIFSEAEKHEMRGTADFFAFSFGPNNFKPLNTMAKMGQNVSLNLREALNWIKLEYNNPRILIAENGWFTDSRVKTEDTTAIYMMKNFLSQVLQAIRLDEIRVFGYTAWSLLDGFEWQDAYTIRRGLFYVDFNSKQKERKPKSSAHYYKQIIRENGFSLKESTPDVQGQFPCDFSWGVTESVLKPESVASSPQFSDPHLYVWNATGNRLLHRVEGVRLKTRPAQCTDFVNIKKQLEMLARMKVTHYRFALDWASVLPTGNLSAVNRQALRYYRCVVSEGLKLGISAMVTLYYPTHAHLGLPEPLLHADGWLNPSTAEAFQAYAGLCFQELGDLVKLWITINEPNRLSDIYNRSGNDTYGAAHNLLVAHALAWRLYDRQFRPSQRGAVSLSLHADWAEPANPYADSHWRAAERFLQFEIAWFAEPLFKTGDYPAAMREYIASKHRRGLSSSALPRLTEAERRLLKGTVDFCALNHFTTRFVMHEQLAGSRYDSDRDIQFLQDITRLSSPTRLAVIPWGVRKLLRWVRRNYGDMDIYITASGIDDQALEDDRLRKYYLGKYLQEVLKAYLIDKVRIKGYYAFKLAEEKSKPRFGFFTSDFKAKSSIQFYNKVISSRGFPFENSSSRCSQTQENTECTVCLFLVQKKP
Briefly: SPR, mAb captured, 37 C. As for the experimental part:
(§2) Equilibrium dissociation constants (KD values) for human KLB or human FGFR1c binding to purified anti-KLB/FGFR1c monoclonal antibodies were determined using a real-time surface plasmon resonance biosensor using a Biacore T-200 or 4000 instrument. The Biacore sensor surface was derivatized by amine coupling with either a polyclonal rabbit anti-mouse antibody (GE, # BR-1008-38) or with a monoclonal mouse anti-human Fc antibody (GE, # BR-1008-39) to capture anti-KLB/FGFR1c monoclonal antibodies expressed with either a mouse Fc or a human Fc, respectively. All Biacore binding studies were performed in a buffer composed of 0.01M HEPES pH 7.4, 0.15M NaCl, 3mM EDTA, 0.05% v/v Surfactant P20 (HBST running buffer). […] Association of hKLB-HA-6His or hFGFR1c-V5-6His to the captured monoclonal antibody was monitored for 3.5 to 4 minutes and the dissociation of hKLB-HA-6His or hFGFR1c-V5-6His in HBST running buffer was monitored for 8-12 minutes. All the binding kinetics experiments were performed at 25° C. or 37° C. Kinetic association (kₐ) and dissociation (kd) rate constants were determined by fitting the real-time sensorgrams to a 1:1 binding model using Scrubber 2.0c curve fitting software. Binding dissociation equilibrium constants (KD) and dissociative half-lives (t½) were calculated from the kinetic rate constants as: […]

Assay [6] deals with T5, extracellular domain of human FGFR1c expressed with C-terminal V5 and hexahistidine tags (human, UniProt P11362 22-376).
T5 construct: also called hFGFR1c-V5-6His
T5 sequence: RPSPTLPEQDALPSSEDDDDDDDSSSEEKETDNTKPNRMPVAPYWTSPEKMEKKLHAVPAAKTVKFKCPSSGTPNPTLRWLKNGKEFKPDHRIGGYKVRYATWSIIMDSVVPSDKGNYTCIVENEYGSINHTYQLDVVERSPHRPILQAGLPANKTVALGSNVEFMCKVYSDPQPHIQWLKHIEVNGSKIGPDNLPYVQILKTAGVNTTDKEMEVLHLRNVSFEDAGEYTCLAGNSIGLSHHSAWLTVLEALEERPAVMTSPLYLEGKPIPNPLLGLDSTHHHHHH
Description: SPR, mAb captured, 37 C. The protocol:
as §2
(In general: SPR reads the build-up and loss of mass on a sensor chip optically.)

The target in assay [7] is T2, human KLB and human FGFR1c co-expressed …. Description: cell-based or functional assay.
For assay [8], the target named is T4, extracellular domain of human KLB …. Description: SPR, mAb captured, 25 C. As for the experimental part:
as §2

The target in assay [9] is T5, extracellular domain of human FGFR1c …. Briefly: SPR, mAb captured, 25 C. The protocol: as §2

Where two headings read alike, the source gives them in different places.

What is called Kd is the free concentration of one partner at which half of the binding sites on the other are occupied at equilibrium, for simple one-to-one binding. Read a high Kd as weaker binding. Usually koff stands for the rate constant with which the complex falls apart. As a reminder, the kon is a measure of how fast the partners come together. A low value points to slower complex formation.

B1: Fusion 3 (Homodimer) (Fc fusion)
chain: QVQLVESGGGVVQPGRSLRLSCVASGFTFSSYGMHWVRQAPGKGLEWVAVISFDGSNKYYADSVKGRFTISRDNSKNTLYLQMNSLRPADTAVYYCAKDRSNYYYFGMDVWGQGTTVTVSSGGGGSGGGGSGGGGSDIVMTQTPLSLPVTPGEPASISCRSSQSLLDSDDGNTYLDWYLQKPGQSPQLLIYTLSYRASGVPDRFSGSGSGTDFTLKISRVEAEDVGVYYCMQRIEFPLTFGGGTKVEIKGGGGSGGGGSGGGGS[human IgG4 Fc with S228P (EU numbers) not spelt out]GGGGSGGGGSGGGGSLLQFGGQVRQRYLYTDDAQQTEAHLEIREDGTVGGAADQSPESLLQLKALKPGVIQILGVKTSRFLCQRPDGALYGSLHFDPEACSFRELLLEDGYNVYQSEAHGLPLHLPGNKSPHRDPAPRGPARFLPLPGLPPAPPEPPGILAPQPPDVGSSDPLSMVGPSQGRSPSYAS
notes: also called 8900P ScFv-Fc fusion; Anti-hFGFR1c(H4H8900P ScFv)-Fc-[deltaN hFGF21(L37-S209)]
On to B1, for which the entries for the “MFI Ratio to unstained cells” value in [1] and in assay [2] were 4 fold and 12 fold, respectively. Also, the entries for the “% Activation” value in assay [3] and in assay [4] were 20.2% and 22.6%, respectively. Besides, the “EC50, SRE-luc activation” value came out at 1.1 nM in assay [3] and 1 nM in assay [4].

B2: scFv8092N-IgG4mutFc x scFv8870P-IgG4mutFc* Heterodimer (bispecific antibody)
chain 1: QVQLQESGPGLVKPSETLSLTCTVSGGSISSYYWSWIRQPPGKGLDWIGHIYYSGTTYYNPSLKSRVSISLDTSKNQFSLKLSSVTAADTAVYYCARHLRGYSSGREFDYWGQGTLVTVSSGGGGSGGGGSGGGGSDIQMTQSPSSLSASVGGRVSLTCRASQSIFSYLNWYQQKPGKAPKLLIYAASNLQSGVPSRFSGSGSGTDFTLTISSLQPEDFATYSCQQSYNIPYTFGQGTKLEIKGGGGSGGGGSGGGGS[human IgG4 Fc with S228P (EU numbers) not spelt out]
chain 2: EVQLVESGGGVVRPGGSLRLSCAASGFKFDVYGMSWVRQLPGKGLEWVSGISWTGGSSGYADSVKGRFTISRDNGKKSLYLQMNSLRAEDTALYYCTREEDYWGQGTLVTVSSGGGGSGGGGSGGGGS[about 100 residues not spelt out]LTFGGGTKVEIKGGGGSGGGGSGGGGSESKYGPPCPPCPAPEFLGGPSVFLFPPKPKDTLMISRTPEVTCVVVDVSQEDPEVQFNWYVDGVEVHNAKTKPREEQFNSTYRVVSVLTVLHQDWLNGKEYKCKVSNKGLPSSIEKTISKAKGQPREPQVYTLPPSQEEMTKNQVSLTCLVKGFYPSDIAVEWESNGQPENNYKTTPPVLDSDGSFFLYSRLTVDKSRWQEGNVFSCSVMHEALHNRFTQKSLSLSPGK
notes: also called 8870P ScFv-Fc*/8092N ScFv-Fc; H4H8870P ScFv-Fc*/H4H8092N ScFv-Fc
On to B2, for which, in [5], the “20 nM hKLB-HA-6His Bind (RU)” value was 45.4 RU; the affinity, expressed as Kd, was 2.89 nM; the koff stood at 0.000265 s⁻¹; the kon is 91600 M⁻¹ s⁻¹. Also, in assay [5], the t1/2 came out at 0.728 h. Further, the “180 nM hFGFR1c-V5-6His Bind (RU)” value in assay [6] was 1.2 RU. Besides, in assay [4], the “% Activation” value came to 2.2% and the “EC50, SRE-luc activation” value amounted to 1.3 nM. In assay [7], the “EC50, SRE-luc activation without ligand” value amounted to 1.2 nM; the “IC50, inhibition of 1 nM 6His-hFGF21” value is 0.72 nM; the “Maximum Activation (%)” value amounted to 2.2%; the “Maximum Inhibition (%)” value is 58%. In [8], the “20 nM hKLB-HA-6His Bind (RU)” value is 12.8 RU, the Kd turned out to be 0.725 nM, the koff amounted to 8.92e-05 s⁻¹ and the kon worked out at 123000 M⁻¹ s⁻¹. Besides, the t1/2 in assay [8] stood at 2.16 h. Further, in [9], the “180 nM hFGFR1c-V5-6His Bind (RU)” value came out at 1.2 RU and the binding result is “no binding (tested: 180 nM)”.

The record behind these values is patent publication US20170174769A1 (Regeneron, published 2017).
